# Out of some 150,000 compounds screened, about 540 (0.36%) showed an effect of 50% or more. Some of the results follow.
# Tested on: Plasmodium falciparum
# Experiment: Primary screen in NF54 nanoGlo assay, in single point, at 2uM, 72h; a lower Z score goes with more inhibition
# Type: functional, Erythrocyte
# Settings: timepoint 72 hour
Structure (SMILES),% Inhibition [%],Z score
O=C(NCCOCC1CC1)C(=O)Nc1cc(F)c(F)c(F)c1,-6,1.07
CCn1nnc2cc(C(=O)N3CC(C)OC(C)C3)ccc21 (stereo not given),-9,1.74
O=C1CCC(C(=O)NC(Cc2ccccc2)[C@H]2C[C@H](O)C2)=NN1 (stereo not given in full),-3,0.6
CCCc1noc(CCCC(=O)N2CCN(c3ccncc3Cl)CC2)n1,-10,1.49
CCCn1c(=O)cc(C(C)C)c2ccc(OCC(=O)N3CCOCC3)cc21,-13,1.6
O=C(Cc1ccc(Cl)cc1)N1CCN(c2cccnc2)C(=O)C1,13,-1.63
CC(C)c1ccc(S(=O)(=O)NCCc2n[nH]c(Cc3cccc(F)c3)n2)cc1,2,-0.43
Cc1ccc2nc(N3CN(Cc4ccccc4)CN(c4nc5ccc(C)cc5s4)C3)sc2c1,-10,1.5
CCc1ccc(/C=C/c2c[nH]c3ccccc23)[n+](CC)c1,93,-8.52
Cc1nc(NC(=O)N(C)[C@@H](C)CO)sc1C,-16,2.02
Fc1cc(-c2ccc(N3CCCC3)nn2)c2ncccc2c1,12,-2.38
Cc1cc(Cl)c(C(=O)N2CCC(C3CC(N)CCO3)CC2)cc1C (stereo not given),-7,0.81
Cc1cnn(CCNCC(=O)NCc2ccc3c(c2)OCO3)c1,-3,0.52
CC[C@](C)(NCCCc1ccccc1C)C(N)=O,-11,1.45
CCC(N)C(=O)NC(CC)c1ccc(C)cc1 (stereo not given),-9,0.9
O=C1CCc2cc(-c3cccc4cccnc34)ccc21,-15,1.78
Cc1nn2c(=O)[nH]ncc2c1-c1ccc(C(N)=O)cc1,-1,0.15
c1ccc(-c2cc(CN3CCCCC3)no2)cc1,-3,0.47
COc1ccc(Cn2nccc2NC(=O)N[C@H]2CCOC2)c(OC)c1OC,-3,0.46
Cc1cc(Br)cnc1N1CCC2(CC1)OC[C@H](C)O2,5,-0.45
CC(C)c1noc(CN2CCCN(Cc3ccc(F)cc3)[C@H](C(C)C)C2)n1,-10,1.42
COCc1cc(NCc2cccnc2N(C)Cc2ccccc2)ncn1,-2,0.34

Structure (SMILES),% Inhibition [%],Z score
O=C(Cc1ccc(F)cc1F)NCCn1nc(C2CC2)ccc1=O,5,-0.67
COCc1nc(CNC(=O)Cc2csc(C)n2)no1,-14,2.76
c1cnc(N2CCN(C3CCN(C[C@H]4CCCCO4)CC3)CC2)nc1,-2,0.27
CCn1nnc(C)c1CN1CCC2(CC1)OCCc1ccsc12,30,-3.43
Cc1cc(NC(=O)NC2CCOCC2)n(CC(C)C)n1,2,-0.22
COc1ccccc1-c1c(OC)nsc1OC,10,-1.83
COc1ccc2c(c1)C(C(=O)NC(c1ccccc1)c1nnn[nH]1)CCC2 (stereo not given),-15,2.23
C[C@@H](CCC(=O)NC1Cc2ccccc2C1)N1CCOCC1,-9,1.42
COC(=O)C1=C(C(=O)OC)SC(=C2C(=S)C(C)(C)N(C(=O)CCC3CCCCC3)c3cc(C)ccc32)S1,1,-0.12
CC(=O)Nc1ccc2c(c1)CN(C(=O)c1c(F)cccc1Cl)[C@H](C(=O)N(C)C)C2,-5,0.78
N#Cc1ccc(N2CC[S+]([O-])CC2)cn1,-3,0.65
CN(CCC#N)C(=O)C(C)(C)c1ccccc1,-11,1.61
NC(=O)Cc1n[nH]c(-c2ccccc2N2CCOCC2)n1,-2,0.2
CC(C)(C)c1ncc(C(=O)N[C@H](c2ccccc2)c2nnn[nH]2)cn1,2,-0.3
COc1ccc(C(=O)N(c2cccc(C(F)(F)F)c2)C(C)C)nn1,-7,1.25
CCN(Cc1cncs1)[C@@H](C)CN(C)C,-1,0.13
CC(=O)N1CCC(C(=O)N2CC(S(=O)(=O)CC(C)C)C2)CC1,-18,2.3
CC[C@H](C)Oc1cc(CNC(=O)C2=COCCC2)ccn1,-12,1.54
COCCCN1CC(=O)N[C@@H]2CN(Cc3ccccn3)CC[C@@H]2OCc2cccc(c2)Oc2cc(ccc2OC)C1,2,-0.32
CCn1cc(-c2nc(-c3ccccc3C)no2)c(=O)c2cc(F)c(N3CCOCC3)cc21,40,-3.29
CCN(C[C@H]1CCCCO1)C(=O)Cc1c(C)n[nH]c1C,-12,1.16
CN(Cc1ccncc1)S(=O)(=O)[C@H]1CCCN(C(=O)c2cccc(Cl)c2)C1,-14,2.13

Structure (SMILES),% Inhibition [%],Z score
CCOC(=O)[C@@H](c1ccccc1)N1CC(C(=O)NC)C1,-11,1.03
CC1CCC(C(=O)NCC2CCCCC2OCC(F)(F)F)O1 (stereo not given),1,-0.12
CC[C@H](NC(=O)c1cnc(C)nc1)c1ccc(C)cc1,-1,0.22
COc1ccc2c(c1)N1CCN(CC(=O)N3CCOCC3)CC1C(C(=O)NCCc1ccccn1)C2 (stereo not given),-14,1.32
Cc1ccc(CC(=O)NCCCN(C)C)cc1C,-7,0.98
CC(C)c1nccn1CCNc1cnc2ccccc2n1,-6,1.07
CC(C)[C@H](Oc1ccccc1)C(=O)N1CCC(n2cc(CN)nn2)CC1,7,-0.96
C[C@@H]1CN(C[C@@H]2CN(C(=O)c3onc4c3CCCC4)C[C@@H]2CO)C[C@H](C)O1,-10,1.83
O=C1C[C@@H](C(=O)Nc2ccccc2)NC(N2CCN(Cc3ccccc3)CC2)=N1,-8,1.19
CN(Cc1ccccc1)C(=O)c1snc2c(=O)n(Cc3ccccc3)c(=O)[nH]c12,-10,1.71
O=C(NC[C@H]1O[C@@H](CO)[C@@H](O)[C@H]1N1CCN(c2ccc(F)cc2)CC1)c1ccc(F)c(Cl)c1,-8,1.16
COCCOc1ccccc1NC(=O)N1Cc2nc(C)n(C)c(=O)c2C1,-7,1.42
Cc1cc(S(=O)(=O)Nc2nonc2C)sc1C,-5,0.58
Cc1cc(S(=O)(=O)N2CC[C@H](O)CC(C)(C)C2)c(C)s1,-4,0.77
CCN(C(=O)CN1CCCC2(CC2)S1(=O)=O)c1cccnc1C,-2,0.37
Cc1cc(=O)[nH]c(NCCNC(=O)[C@H]2CCC[C@H](O)C2)n1,-5,1.01
O=S(=O)(c1ccccc1)N1CCN(c2nc3ccccc3c3nnc(-c4ccco4)n23)CC1,-13,1.47
O=C(CC1CC2CCC1C2)NC1CCNC1=O (stereo not given),16,-1.82
Cc1cccc(N([C@H]2CCS(=O)(=O)C2)S(C)(=O)=O)c1,-39,4.58
CN(Cc1nccs1)CC(C)(CO)CO,-14,1.96
Cc1nn(-c2ccc3nncn3n2)c(C)c1CCC(=O)NCc1ccc(Cl)cc1,1,-0.15
Cc1cc(NC(=O)N[C@@H]2CCCc3c(F)cc(F)cc32)n(C)n1,-2,0.43

Structure (SMILES),% Inhibition [%],Z score
CCOC(=O)c1cc(C(C)(C)C)n(C2CCN(C(=O)C(C)(C)OC(C)=O)CC2)n1,-1,0.12
COc1ccc(C(=O)N2CCC3(CC2)c2nc[nH]c2CCN3C(C)=O)c(O)c1,-12,1.39
Cc1nnsc1C(=O)NCc1nccc(N(C)C)n1,-3,0.59
C[C@H]1CN(C(=O)NCc2nc(C(C)(C)C)cs2)CC(=O)N1,-7,0.72
Cc1ccsc1CN1CC[C@H](CO)[C@H](NC(=O)c2cccnc2)C1,-19,2.61
O=c1nc(C2CC2)ccn1CCCOCCc1ccccc1,-4,0.46
Cc1csc(CN2CC[C@H]2c2ccc(F)cc2)n1,-7,0.89
Cc1ccc(Oc2ncc(Cn3ccc4ccccc43)s2)cc1,-7,0.85
N#Cc1cccnc1NCCCOC1CCOCC1,8,-1.42
CCN(C(=O)c1ccccc1-c1nnn[nH]1)[C@H]1CCCC[C@@H]1O,11,-1.41
COC1(CN2CCn3c(n[nH]c3=O)C2)CCCC1,-4,0.77
Cc1cc(C(=O)N(CC(=O)O)CC2CC2)sc1C,-7,0.62
CNc1ccccc1C(=O)NCC1CCCOC1C(C)C (stereo not given),-11,1.75
COc1ccc(CN(Cc2ccco2)C(=O)c2cccc(C(F)(F)F)c2)cc1OS(=O)(=O)c1cccc(C(F)(F)F)c1,4,-0.49
O=C1NCCN(C(=O)CN2CCCCCC2)[C@H]1c1cccc(F)c1,-13,1.83
CC(C)(O)Cn1ncnc1-c1sccc1Cl,-16,2.12
c1ccc2sc(N3CCCN(C[C@@H]4CCCN5CCCC[C@H]45)CC3)nc2c1,4,-0.5
CC(C)C(=O)N1CCN(c2nc3c(s2)C[C@@H](C(=O)NCc2ccccc2)CC3)CC1,-9,1.35
O=S(=O)(Cc1ccccc1)NCC1CN(CC(F)(F)F)C1,-2,0.3

# From ChEMBL document CHEMBL4888484, “Replenishing the malaria drug discovery pipeline: Screening and hit evaluation of the MMV Hit Generation Library 1 (HGL1) against asexual blood stage Plasmodium falciparum ,using a nano luciferase reporter read-out” (2022)
